According to paper PMC4336329 (PLoS ONE, 2015):
Among all 310,000 compounds or so, about 2,200 (0.71%) showed an effect of 50% or more. Effects have a minus sign here. Some of the results follow.

target: human ether-à-go-go-related gene (hERG) potassium channel (human, UniProt Q12809); experiment: primary screen, population patch clamp on CHO cells stably expressing hERG
Sequence (Q12809 whole entry, looked up): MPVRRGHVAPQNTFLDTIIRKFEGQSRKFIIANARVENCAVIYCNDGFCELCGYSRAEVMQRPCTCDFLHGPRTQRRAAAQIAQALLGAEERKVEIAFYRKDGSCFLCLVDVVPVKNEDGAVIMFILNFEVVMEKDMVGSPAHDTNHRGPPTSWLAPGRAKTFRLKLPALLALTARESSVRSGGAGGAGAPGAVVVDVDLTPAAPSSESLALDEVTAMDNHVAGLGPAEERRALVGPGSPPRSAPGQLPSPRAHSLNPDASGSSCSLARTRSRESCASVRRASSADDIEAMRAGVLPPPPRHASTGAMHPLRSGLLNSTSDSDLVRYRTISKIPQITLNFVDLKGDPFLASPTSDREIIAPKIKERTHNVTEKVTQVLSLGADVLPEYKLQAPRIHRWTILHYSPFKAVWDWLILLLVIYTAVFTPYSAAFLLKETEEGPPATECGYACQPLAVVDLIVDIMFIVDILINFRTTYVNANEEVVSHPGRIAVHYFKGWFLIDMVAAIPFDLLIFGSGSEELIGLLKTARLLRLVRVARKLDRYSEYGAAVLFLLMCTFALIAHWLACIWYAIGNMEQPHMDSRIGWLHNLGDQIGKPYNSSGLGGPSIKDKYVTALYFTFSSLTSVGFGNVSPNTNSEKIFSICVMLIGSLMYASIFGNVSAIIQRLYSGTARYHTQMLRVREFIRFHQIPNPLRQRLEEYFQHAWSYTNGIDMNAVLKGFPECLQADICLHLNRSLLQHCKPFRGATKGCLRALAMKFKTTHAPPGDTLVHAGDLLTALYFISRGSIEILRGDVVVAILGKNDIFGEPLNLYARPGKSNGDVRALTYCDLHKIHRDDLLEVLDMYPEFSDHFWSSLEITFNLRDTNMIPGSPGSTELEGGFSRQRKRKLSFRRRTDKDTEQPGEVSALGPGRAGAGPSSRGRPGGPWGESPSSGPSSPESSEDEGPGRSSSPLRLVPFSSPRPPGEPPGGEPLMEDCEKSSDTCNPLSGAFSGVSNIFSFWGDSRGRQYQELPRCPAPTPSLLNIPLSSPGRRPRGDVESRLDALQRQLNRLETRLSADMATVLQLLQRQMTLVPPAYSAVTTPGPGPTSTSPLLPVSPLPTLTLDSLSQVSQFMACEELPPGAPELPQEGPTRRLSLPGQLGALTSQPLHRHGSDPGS

Row | Compound | hERG current change (%, negative = inhibition) at 1uM
1 | Cc1nc2ccc(Br)cc2c2c1CC(CBr)O2 (stereo not drawn) | 7.75%
2 | COc1ccc(S(=O)(=O)N(CC(=O)N2CCN(C)CC2)c2ccc(C)cc2)cc1OC | 4.99%
3 | FC(F)(F)c1cccc(Nc2cc(-c3ccccc3)nc3ncnn23)c1 | 12.6%
4 | CCOC(=O)c1ccc(NC(=O)CC2C(=O)N(c3cccc(OC)c3)C(=O)N2CCOC)cc1 (stereo not drawn) | 9.03%
5 | CC1CCN(C(=O)COC(=O)c2ccc(N3CCCC3=O)cc2)CC1 | 11.1%
6 | CCOc1ccc(-n2c(N)c(C(=O)NCc3ccco3)c3nc4ccccc4nc32)cc1 | 1.97%
7 | O=C(/C=C/c1cccs1)NC1CCS(=O)(=O)C1 (stereo not drawn) | 13.9%
8 | Cc1ccc(NC(=O)c2cc(-c3ccc(C)o3)nc3ccccc23)cc1 | 13.9%
9 | COc1ccccc1CCC(=O)OCC(=O)NC1CCCCC1 | 10.5%
10 | Cc1cccc(NS(=O)(=O)c2cccc(C(=O)N3CC(C)OC(C)C3)c2)c1 (stereo not drawn) | 14.6%
11 | CCN1CCN(C(=O)c2nn(-c3ccc(C)cc3)c(=O)c3c2c2ccccc2n3C)CC1 | 7.19%
12 | Cc1ccsc1C(=O)OCC(=O)NCCCc1ccccc1 | -9.97%
13 | NC1=NC(=Nc2ccc(Br)cc2)c2ccccc21 | 9.14%
14 | N#CCCN(C(=O)c1ccco1)c1ccccc1 | 13.3%
15 | O=C1c2ccccc2S(=O)(=O)c2cc(C(=O)N3CCCC3)ccc21 | 14.7%
16 | CC(=O)Nc1ccc(NC(=O)C2CCN(C(=O)c3ccc([N+](=O)[O-])cc3)CC2)cc1 | 22.3%
17 | Cc1cccc(C)c1NC(=O)CN1CCN(CC(=O)c2cc(C)n(C3CC3)c2C)CC1 | -0.73%
18 | Cc1c(N=NC2=C(O)CC(C)(C)CC2=O)cc2c(c1[N+](=O)[O-])C(C)(C)CC2(C)C | 13.6%
19 | CCCCNc1nc2c(S(=O)(=O)c3ccccc3)nnn2c2ccccc12 | 15.8%

Row | Compound | hERG current change (%, negative = inhibition) at 1uM
20 | COc1cccc(CN(C)C(=O)C2CSC3(C)CCC(=O)N23)c1OC (stereo not drawn) | 11%
21 | Cl.Fc1ccc(CCNCc2ccccc2Cl)cc1 | 3.93%
22 | O=C(CNc1ccc(Br)cc1)c1ccccc1 | 13.6%
23 | Oc1ccc(-[n+]2c(-c3ccccc3)cc(-c3ccccc3)cc2-c2ccccc2)cc1.[O-][Cl+3]([O-])([O-])[O-] | 5.58%
24 | O=Cc1cc(N=Nc2ccccc2Cl)ccc1O | 14.5%
25 | COc1ccc(-c2ncnc(C(F)(F)F)c2-c2csc(C)n2)c(O)c1 | 10.1%
26 | C[C@H]1CN=C(Nc2ccccc2)N1CCCC1CCCC1 | -23.6%
27 | COc1ccc(C2=Nc3cccc4cccc(c34)N2)cc1 | 16.9%
28 | CCOc1cc(C(=O)OCC(=O)NC(C)c2ccccc2)ccc1OCC(=O)N1CCOCC1 (stereo not drawn) | 5.73%
29 | CN(C(=O)c1ccc(NC(=O)Cc2ccc(NC(=O)C3CCCN(C(=O)CCc4ccccc4)C3)cc2)cc1)C1CC1 (stereo not drawn) | 3.78%
30 | O=C(Nc1ccnn1C1CCN(Cc2ccc3nonc3c2)CC1)c1cccc(F)c1 | -1.92%
31 | COC(=O)C(Cc1cccc(C)n1)(c1ccccc1)c1ccccc1 | 8.47%
32 | CCOC(=O)c1[nH]c2ccccc2c1NC(=O)c1ccc2c(c1)OCO2 | -3.54%
33 | Cc1ccc(-c2nsc(SCC(=O)NCC3CCCO3)n2)cc1 (stereo not drawn) | 5.46%
34 | Cc1n[nH]c(=O)c2c(NC(=O)CSc3nnc(C4CC4)n3C)oc(C)c12 | 9.12%
35 | COc1ccccc1NS(=O)(=O)c1cccc(C(=O)N/N=C/c2ccc3c(c2)OCCO3)c1 | 15.7%
36 | CN(C(=O)CSc1ncccc1C(=O)O)c1ccccc1 | 3.32%
37 | Cc1ccccc1NC(=O)OCc1cn(-c2ccc(Cl)cc2)nn1 | -0.894%
38 | CCc1nc2ccccc2n1CCc1ccccc1.Cl | 7.95%

Row | Compound | hERG current change (%, negative = inhibition) at 1uM
39 | Cc1cccc(N2CCN(S(=O)(=O)c3cccc4nonc34)CC2)c1C | 13.1%
40 | Cc1nnc(SCc2ccccc2Cl)n(N)c1=O | 6.01%
41 | COc1ccc(C2CC(c3ccc(Br)cc3)=NN2C(=O)CSC2=NN3CCCC(=O)N=C3S2)cc1 (stereo not drawn) | 31.1%
42 | CC(=O)Nc1ccc(NC(=O)Cc2ccc(S(=O)(=O)N3CCCCC3)s2)cc1 | 5.23%
43 | CCC(Cc1ccccc1)NC(=O)CN1C(=O)CSc2ncccc21 (stereo not drawn) | 3.05%
44 | CCOC(=O)c1snc2c(=O)[nH]cnc12 | 6.65%
45 | Cc1ccc(C(=O)Nc2ccccc2C(=O)O)cc1S(=O)(=O)Nc1ccccc1 | 7.94%
46 | CCOc1ncccc1C(=O)Nc1nnc(C(CC)CC)s1 | 5.97%
47 | CCOP(=O)(OCC)C(NC(=O)c1cccs1)c1ccccc1 (stereo not drawn) | 12.8%
48 | COc1cccc2c1O/C(=N\O)C(C(=O)Nc1ccc(C)cc1)C2 (stereo not drawn) | 12%
49 | CC1CCC2C(C1)Nc1c(C(=O)O)cccc1C2(C)C (stereo not drawn) | 28%
50 | Cc1nn(C)cc1NC(=O)Cn1nc(C(F)(F)F)cc1C1CC1 | 10.1%
51 | O=C(CSc1ncccn1)Nc1ccccc1 | 7.86%
52 | CSc1nnc(-c2ccc(Br)s2)n1C | 10.5%
53 | CC(=O)/C(N=Nc1cc2c(c([N+](=O)[O-])c1C)C(C)(C)CC2(C)C)=C(\C)O | -0.089%
54 | O=C(OCC(=O)N1CCN(c2ccccc2)CC1)c1ccc[n+]([O-])c1 | 8.51%
55 | CCN(CC)S(=O)(=O)c1cccc2cccnc12 | 2.86%
56 | Cc1nc(-c2ccccc2)nn1-c1ccc([N+](=O)[O-])cc1 | -2.48%
57 | CCOC(=O)c1cc(C)n(Cc2ccccc2)c1C | 8.26%
